From PubChem BioAssay AID588342 (National Center for Advancing Translational Sciences (NCATS), 2011)
About 25,000 (6.9%) of roughly 360,000 compounds were called active. Inconclusive results, whose numbers are uncertain, are shown with a selection of clear calls. Calls come from the whole dose curve; as a rule, active = well fitted inhibition curve with a large enough effect; inconclusive = small, poorly fitted or top-dose-only effect; inactive = flat fitted curve, though single readings scatter. A potency beside an inconclusive call is a rough fit, not a confirmed value.
Note: nearly all actives have a fitted effect of over 55% in size.
Potency is the fitted concentration of half-maximal effect; tags give direction and shape of the fitted curve.

These compounds were tested against Luciferin 4-monooxygenase (Photinus pyralis) (UniProt P08659) (assay: qHTS profiling assay for firefly luciferase inhibitor/activator using purifed enzyme and Km concentrations of substrates (counterscreen for miR-21 project)). Conditions: purified FLuc, luminescence inhibition; series mostly up to 57.5 µM.
UniProt P08659, sequence (P08659 whole entry, looked up): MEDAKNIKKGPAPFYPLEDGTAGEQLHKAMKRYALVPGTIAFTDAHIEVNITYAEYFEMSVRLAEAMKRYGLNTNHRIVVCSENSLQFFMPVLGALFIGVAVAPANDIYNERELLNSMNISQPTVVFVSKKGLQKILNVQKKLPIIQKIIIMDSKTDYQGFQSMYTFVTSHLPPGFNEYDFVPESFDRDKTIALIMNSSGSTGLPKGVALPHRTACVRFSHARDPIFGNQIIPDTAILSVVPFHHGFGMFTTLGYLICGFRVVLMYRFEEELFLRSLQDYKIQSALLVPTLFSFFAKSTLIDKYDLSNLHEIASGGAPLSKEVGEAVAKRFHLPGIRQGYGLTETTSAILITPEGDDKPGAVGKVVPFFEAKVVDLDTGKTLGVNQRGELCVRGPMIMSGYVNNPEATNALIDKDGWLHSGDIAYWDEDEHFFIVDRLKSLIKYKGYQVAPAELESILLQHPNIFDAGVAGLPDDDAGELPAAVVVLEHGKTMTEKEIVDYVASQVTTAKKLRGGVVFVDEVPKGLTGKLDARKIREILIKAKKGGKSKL
Outline: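 Purified P. pyralis luciferase (10nM final) with 10uM D-luciferin and 10uM ATP (Km levels) in 50mM Tris acetate pH 7.5, 10mM Mg acetate, 0.01% Tween-20, 0.05% BSA; qHTS 6-point titration, ~60 µM downward; luminescence read.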
For `Nc1cc2c(cc1O)CCCC2`, the Potency was inconclusive: 19 µM [inhibitor, partial curve]. With `O=C1c2ccccc2C(=O)N1c1cccc2cccnc12` the Potency was “inactive”. With `Cc1ccc(NC(=O)C2CCN(S(=O)(=O)c3ccc4c(c3)CCCN4C(=O)C3CCC3)CC2)cc1` the Potency was “inactive”. In the case of `C/C(=N/NC(=O)c1ccco1)c1ccc(NC(=O)c2ccc(Br)o2)cc1`, the Potency is reported as inconclusive: 21.3 µM [inhibitor, partial curve, poor fit]. With `Cc1oc(-c2ccc3c(c2)OCCO3)cc1C(=O)NC(CCC(=O)O)C(=O)O` (stereo not given) the Potency was inconclusive: 23.9 µM [inhibitor, single point]. `CCOC(=O)c1ccc(NC2=CC(=O)C(=O)c3ccccc32)cc1` was tested, and the Potency was “inactive”. In the case of `O=C1N=C(N2CCCCC2)S/C1=C\c1ccncc1`, the Potency is reported as “inactive”. With `Cc1cc(C)nc(NS(=O)(=O)c2ccc(NC(=O)c3nc(SC(C)C)ncc3Cl)cc2)n1` the Potency was inconclusive: 7.57 µM [inhibitor, partial curve, poor fit]. `CCCN1C(=O)/C(=C/c2ccccc2OCc2ccc(C(=O)O)cc2)NC1=S` was tested, and the Potency was inconclusive: 37.9 µM [inhibitor, single point]. With `COc1cc(OC)c(NC(=O)Cn2c(SCc3ccccc3F)nc3cccnc32)cc1Cl` the Potency was inconclusive: 2.69 µM [inhibitor, full curve]. With `CC(=O)c1ccc(N2CCN(c3nc4ccccc4c4nc(-c5cccc(C)c5)nn34)CC2)cc1` the Potency was “inactive”. In the case of `CC1(C)CC(=O)C2=C(C1)Nc1ccccc1S2`, the Potency is reported as inconclusive: 30.1 µM [inhibitor, partial curve, poor fit]. In the case of `CCCN(CC(=O)Nc1ccc(Cl)cc1Cl)C(=O)/C=C/c1ccco1`, the Potency is reported as inconclusive: 26.9 µM [inhibitor, single point]. In the case of `O=C(COc1ccc([N+](=O)[O-])cc1)Nc1nnc(-c2cccnc2)s1`, the Potency is reported as inconclusive: 37.9 µM [inhibitor, partial curve, poor fit]. In the case of `CN(Cc1ccsc1)C(=O)CCc1nnc(CCCc2ccccc2)o1`, the Potency is reported as active: 13.5 µM. For `Cc1noc(C)c1CSc1ccc2ccccc2n1`, the Potency was inconclusive: 23.9 µM [inhibitor, partial curve, poor fit]. For `COC(=O)c1ccc(NC(=O)C2CCN(C(=O)Nc3ccccc3)CC2)cc1`, the Potency was inconclusive: 21.3 µM [inhibitor, partial curve, poor fit]. In the case of `Cc1ccccc1Cn1ccc(NC(=O)c2cnn3c(C(F)(F)F)cc(-c4ccco4)nc23)n1`, the Potency is reported as “inactive”. For `CCc1nn2c(N)c(/C=C3\C=Nc4ccccc43)c(=O)nc2s1`, the Potency was “inactive”. `CCOC(=O)c1ccccc1NC(=O)NCc1cccn1Cc1ccc(F)cc1` was tested, and the Potency was “inactive”. For `C/C=C/c1ccc(OCC(=O)N2CCc3cc(OC)c(OC)cc3C2)c(OC)c1`, the Potency was “inactive”. In the case of `O=C(NCc1ccco1)C1CCCN1S(=O)(=O)c1ccccc1C(F)(F)F` (stereo not given), the Potency is reported as “inactive”. For `CN(C)c1ccc(/C=N/NC(=O)C2COc3ccccc3O2)o1` (stereo not given), the Potency was inconclusive: 37.9 µM [inhibitor, single point]. In the case of `Cc1cc(Cl)ccc1OCC(=O)N1CCC(c2nc3ccccc3o2)CC1`, the Potency is reported as inconclusive: 37.9 µM [inhibitor, partial curve, poor fit]. With `CCOc1ccc(CN(C)C(=O)CNC(=O)c2sc3ccccc3c2Cl)cc1` the Potency was inconclusive: 21.3 µM [inhibitor, single point]. In the case of `O=C(/C=C/c1ccccc1)N/C(=C/c1ccccc1)C(=O)Nc1ccccc1O`, the Potency is reported as inconclusive: 23.9 µM [inhibitor, single point]. `CCOc1ccc(NC(=O)N2CCC(c3ccc(C)cc3)C2)cc1` (stereo not given) was tested, and the Potency was “inactive”. For `Cc1ccc2oc(-c3cccc(NC(=S)NC(=O)c4cccs4)c3)nc2c1`, the Potency was active: 10.7 µM. In the case of `Cc1oc(-c2ccccc2)cc1C(=O)Nc1cccc2ccccc12`, the Potency is reported as inconclusive: 21.3 µM [inhibitor, partial curve, poor fit]. In the case of `CCCCNC(=O)c1sc(=S)n2c1[nH]c(=O)c1ccccc12`, the Potency is reported as inconclusive: 33.8 µM [inhibitor, partial curve, poor fit]. In the case of `Cc1cccnc1NC(=S)Nc1ccc(Br)cc1Cl`, the Potency is reported as active: 4.78 µM. `CCc1cc(-c2[nH]ncc2-c2ccc3c(c2)OCO3)c(O)cc1O` was tested, and the Potency was inconclusive: 37.9 µM [inhibitor, partial curve, poor fit]. `COc1ccccc1C(=O)Nc1c[nH]c(=O)[nH]c1=O` was tested, and the Potency was inconclusive: 19 µM [inhibitor, partial curve, poor fit]. For `CCN(Cc1ccccc1)c1ccc(/C=C(\C#N)c2ccccn2)cc1`, the Potency was active: 7.57 µM. With `N/C(=N\OC(=O)Cc1ccc(Cl)cc1)c1cccnc1` the Potency was inconclusive: 26.9 µM [inhibitor, partial curve, poor fit]. `O=C(Nc1nnc(-c2ccc3c(c2)CCCC3)o1)c1ccccc1` was tested, and the Potency was active: 19 µM. `COc1ccccc1N(Cc1ccccc1)S(=O)(=O)c1cccc(C(=O)Nc2cc(C)ccn2)c1` was tested, and the Potency was active: 0.675 µM. In the case of `O=C(Nc1nc2nccc(-c3ccccc3)n2n1)c1ccccc1`, the Potency is reported as inconclusive: 7.57 µM [inhibitor, full curve]. With `COc1ccc(C(=O)c2cc3cccc(OC)c3o2)cc1` the Potency was active: 9.53 µM. With `CC(C)(C)c1ccc(C(=O)/C(C#N)=C/c2cccs2)cc1` the Potency was active: 1.2 µM. In the case of `O=C(Nc1ccc2c(c1)OCO2)c1cnc2n(c1=O)CCS2`, the Potency is reported as inconclusive: 23.9 µM [inhibitor, partial curve]. With `O=C1CN(C(=O)COc2ccc(Cl)cc2)C(c2ccc(F)cc2)c2cc(Br)ccc2N1` (stereo not given) the Potency was “inactive”. `CC(=O)C1=C(c2ccc(Cl)c(Cl)c2)N(C(C)=O)n2cnnc2S1` was tested, and the Potency was inconclusive: 33.8 µM [inhibitor, partial curve, poor fit]. For `CC(Nc1ccc(-c2nc(-c3ccco3)no2)cc1[N+](=O)[O-])c1ccccc1` (stereo not given), the Potency was inconclusive: 15.1 µM [inhibitor, partial curve]. `O=C(Nc1ccc(F)cc1)Nc1ccc(N2CCOCC2)c2nonc12` was tested, and the Potency was inconclusive: 6.01 µM [inhibitor, partial curve, poor fit].
